Source: the RNAGym collection of RNA variant scans (doi:10.1093/nar/gkz1192)
The source gives no read counts; variants with many changes may rest on few reads.

B1: CPEB3 Ribozyme (parent)
chain: UAACAGGGGGCCACAGCAGAAGCGUUCACGUCGCAGCCCCUGUCAGAUUCUGGUGAAUCUGCGAAUUCUGCUGUAUAUCUC

Variants of: B1
Experiment: self-cleavage, relative activity (ratio to wild type); higher = more cleavage; in vitro, sequencing
Method in brief: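 After error-prone PCR and barcoding, CPEB3 ribozyme mutant libraries were transcribed with T7 RNA polymerase at 37°C for 5 hours, then given 15 min with DNase I before an EDTA stop, and they cleaved during both steps. Reverse transcription with template switching preceded Illumina sequencing. Relative activity divides a variant's cleaved/total read fraction by the unmutated ribozyme's. At least 5 reads were required per variant, and three batches were averaged.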

Row | Variant | self-cleavage
1 | A5U C11U A15G A56G A65G U80A | 0.06
2 | A5U A28G U51A | 0.65
3 | A5U G8A A57G G61A U72C | 0.14
4 | A5U A21G G52C U80C | 0.78
5 | A5U C12U U49A A57G U60A G63U A75G | 0.42
6 | A5U A21G U41A U74C A77U | 0.82
7 | A5U C11U A28U U43C U51A U69A | 0.07
8 | A5U G8A A28G U43C U80G | 0.07
9 | A5U U25C A56U A64U | 0.16
10 | A5U A57G U72A | 0.59
11 | A5U A57G U72C | 1.29
12 | A5U C40U A64G | 0.52
13 | A5U C12U U51C | 1.18
14 | A5U U25C C40U A56C A57U | 0.38
15 | A5U A45U A64U C68U | 0.12
16 | A5U A28G C38G A45G U51A | 0.03
17 | A5U G7A A18U U49C G70A | 0.19
18 | A5U A28G G36U U60C U67C C68A | 0.13
19 | A5U A28U G33U A77U | 0.21
20 | A5U U25C A35U U78C U80A | 0.09
21 | A5U A47U U60A | 0.18
22 | A5U A28U U41C U66C U80C | 0.21
23 | A5U C40U U43C U51C A56G A64U C79A | 0.12
24 | A5U A56G U67C U72A | 0.28

Row | Variant | self-cleavage
25 | A5U A45U U48C U66A U67C | 0.12
26 | A5U C29A C32U | 0.28
27 | A5U A64U A65G | 0.12
28 | A5U A35G U78A | 1.29
29 | A5U C11A A20G A21U A28U U51C C59A | 0.05
30 | A5U A47G U67C U78C U80C | 0.17
31 | A5U G7U A18G U26C | 0.11
32 | A5U G33A U54C U60A A64C U72A | 0.09
33 | A5U G19C G24C G30U C34U A35U A64G | 0.05
34 | A5U G9A A21G A35U U43A A56G U78C | 0.11
35 | A5U U25C A65G U72C | 0.18
36 | A5U C17U U25C U49C G52U A57U U74C | 0.08
37 | A5U A56U A57U A64U | 0.12
38 | A5U G8C U72A | 0.16
39 | A5U G9A A21G U31C U60C | 0.06
40 | A5U C11U A15U U69C U80C | 0.34
41 | A5U C23U A75U | 0.42
42 | A5U G16A U25C U51A | 0.1
43 | A5U C59U A64U | 0.15
44 | A5U G8U A21G U51G U60C U69A | 0.18
45 | A5U C40G U41C U54A | 0.31
46 | A5U G10A U31C U48C U60C A65C U76A | 0.15
47 | A5U G8U A21G A65G | 0.17
48 | A5U G19A U60C U72G | 0.06

Row | Variant | self-cleavage
49 | A5U G9A U41C A45U C62U | 0.17
50 | A5U A45U G70A U78C | 0.22
51 | A5U C11G A64U | 0.42
52 | A5U G8A A18G A35U G42C U49A U66C | 0.04
53 | A5U C39U U69C U72A | 0.25
54 | A5U C12U U41C U66C | 0.74
55 | A5U A45G A56U | 0.74
56 | A5U A35G A57U | 1.22
57 | A5U A35G A57C | 0.91
58 | A5U G10A A15G C27A C38A A47G | 0.05
59 | A5U U25C A56U U60A U80C | 0.11
60 | A5U A45U U49C U51C A64G | 0.09
61 | A5U U25C A28G U41C U74C | 0.11
62 | A5U A45G A47G A64G U66C | 0.17
63 | A5U G19A C40A A56G | 0.21
64 | A5U G9U A20C U25C U41C A45G A64G | 0.06
65 | A5U C11G U67C | 0.2
66 | A5U U25A U26A A56G A57C | 0.25
67 | A5U C11G A15U C17U | 0.49
68 | A5U C29A G70A | 0.07
69 | A5U U25A C40A U58C U67C U72A | 0.08
70 | A5U A21G U25C A35G U60A A75U | 0.03
71 | A5U G55A U67C | 0.23
72 | A5U A21G U43A U48A U69C U78A | 0.04

Row | Variant | self-cleavage
73 | A5U C40A U41C U51C | 0.18
74 | A5U C12U A15G | 1.05
75 | A5U A28U U69A U72C | 0.58
76 | A5U U25A A45U A64U | 0.15
77 | A5U G30U U41G U48C U74A | 0.21
78 | A5U A45G U58C A65G | 0.1
79 | A5U G24U A28C U51A A56G U60C U72G | 0.57
80 | A5U A21G C29U C37U U43G | 0.19
81 | A5U A21G C50A A65U | 0.2
82 | A5U G9U U26A U76C | 0.38
83 | A5U G19A U31C U41C | 0.28
84 | A5U G8U U43C A45G A47G U69C | 0.05
85 | A5U G9A U25C U31A A35U | 0.06
86 | A5U A21G U26A | 0.58
87 | A5U C12U G22U A75G | 0.33
88 | A5U C27U A28G C32U U60C | 0.17
89 | A5U C23G A28G A56G G63C U80C | 0.13
90 | A5U A28G U43C U49C | 0.33
91 | A5U U25C U31C A45G U60A U67C | 0.13
92 | A5U G33A A56U U58C A64U | 0.1
93 | A5U C29U A35C | 0.28
94 | A5U A28G C50A | 0.27
95 | A5U C39U A64G A75U U78C | 0.27
96 | A5U C12U G30A A47G A77U | 0.12

Row | Variant | self-cleavage
97 | A5U G7U G10C A15U A21G U60C U80C | 0.13
98 | A5U C34U A35G U67C | 0.13
99 | A5U C11G A20G A28C U78C | 0.72
100 | A5U C14A C29G U41C A57G U58C | 0.1
101 | A5U G7U A15U C50U U54C A56U A57G | 0.07
102 | A5U A28G A64U | 0.24
103 | A5U C23U A28G A56G U69C U72A U80A | 0.09
104 | A5U A35U U43C U60C U66C U69A U76C | 0.14
105 | A5U C38A A47G U54C U60A U76C | 0.07
106 | A5U A56G A65U | 0.15
107 | A5U G24A U31C U43G A45G | 0.12
108 | A5U A47U U48C U72C U74C | 0.17
109 | A5U A21G G24A U31C A45U U74A | 0.28
110 | A5U A64G U76C U80A | 1.19
111 | A5U A45G A64G U67C U80A | 0.28
112 | A5U A21G U60C C68G U80C | 0.11
113 | A5U U25A C29A C37A U69C | 0.18
114 | A5U A45U U48C U51C | 0.39
115 | A5U U25C G55U U69C U80C | 0.22
116 | A5U C32U G36C U60C U72C | 0.07
117 | A5U G9U U66C U72C | 0.09
118 | A5U G6C U67C | 0.36
119 | A5U G8C U54C U72C U76C | 0.32
120 | A5U G8A G9A U25A U31C A65U U67G | 0.11

Row | Variant | self-cleavage
121 | A5U C37A G73A | 0.63
122 | A5U G6A A13U U43A U80A | 0.64
123 | A5U G19U U31A G36C U66C U69C | 0.15
124 | A5U C12U A15G A45U | 0.29
125 | A5U G10C A13C A28G U69A | 0.4
126 | A5U U25A A64G | 0.2
127 | A5U G6A C34U U43A A45G U80A | 0.1
128 | A5U A35G A45G U51C U69A C71G | 0.79
129 | A5U G9U A28G | 0.27
130 | A5U C40A A47G U60C | 0.19
131 | A5U A28G U49A G55C C71A U72G A77U | 0.04
132 | A5U A57G A65G | 0.43
133 | A5U A35C U41A U54C | 0.29
134 | A5U G6A U51C A57G | 0.27
135 | A5U G16C A21G C81U | 0.16
136 | A5U C11G A56G | 0.66
137 | A5U C39A U74C | 0.66
138 | A5U G22U U48A | 0.48
139 | A5U C14U A28G A64G | 0.92
140 | A5U U25A U43C U54C U72C U76C C79G | 0.07
141 | A5U G10A U43C U51C A57G A75G U80C | 0
142 | A5U A45G U74C | 1.08
143 | A5U G24A U26C A28G U60A U80A | 0.21
144 | A5U C11U A28U U74C A77U U78A | 0.69

Row | Variant | self-cleavage
145 | A5U A28U A65G A75G U76C | 0.2
146 | A5U C11U A15U A18G U51C | 0.04
147 | A5U C29U A35U A47U U54G | 0.07
148 | A5U G8U C50U U54C A56U A64C C81A | 0.03
149 | A5U G6A U43A U80A | 0.56
150 | A5U C32U U58C U66C | 0.16
151 | A5U A45G U49C A65G U69C | 0.41
152 | A5U A57G A64G | 1.02
153 | A5U A28U C44U U72A A77G | 0.1
154 | A5U C44A A64G | 0.41
155 | A5U C11G U43A A64U | 0.16
156 | A5U G33U A47G G53U U60G U66C | 0.09
157 | A5U G7C A15G A18G U26C A35G | 0
158 | A5U C17G U43C A64U | 0.13
159 | A5U A35G U67A U74C | 1.26
160 | A5U A35U U43C | 0.37
161 | A5U A35U G73A | 1.26
162 | A5U U25C A28G U60A | 0.44
163 | A5U A45U A47G U60A | 1.11
164 | A5U C23G U69C U78C | 0.1
165 | A5U C38U C44U U49C | 0.12
166 | A5U C23G C27A A35U A75U A77U | 0.07
167 | A5U C23A U31A U54A A57G U58A U72C | 0.06
